Binding data for four molecules are collected here from paper PMC5006311.

Substitutions are numbered along the chain they refer to. Names may count otherwise. These are yes or no findings as the source states them, for the method shown. Binding seen in cells or lysates may run through a third protein. Some binding calls cover weakened binding; strength is not graded here. For part of these data: Tags and fused reporters may be left off the sequences shown.

In test [1] the target is T1, ENT1 (of the unpublished co-immunoprecipitations) (UniProt Q99808).
T1 sequence: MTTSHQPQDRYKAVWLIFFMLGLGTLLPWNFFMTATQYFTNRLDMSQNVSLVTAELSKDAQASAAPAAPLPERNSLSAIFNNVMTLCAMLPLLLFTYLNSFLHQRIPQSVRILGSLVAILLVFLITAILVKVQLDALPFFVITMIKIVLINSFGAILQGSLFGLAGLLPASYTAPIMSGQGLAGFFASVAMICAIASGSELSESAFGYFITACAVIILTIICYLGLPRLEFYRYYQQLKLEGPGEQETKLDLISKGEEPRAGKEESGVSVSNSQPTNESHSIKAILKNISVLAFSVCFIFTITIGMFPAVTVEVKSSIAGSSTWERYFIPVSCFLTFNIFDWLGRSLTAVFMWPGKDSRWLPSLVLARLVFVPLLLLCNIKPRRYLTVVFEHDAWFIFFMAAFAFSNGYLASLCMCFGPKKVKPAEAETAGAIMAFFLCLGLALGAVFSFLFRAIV
The experiment in a line: co-IP; unpublished data (Grañe-Boladeras et al.); no conditions given.

Test [2] deals with T2, ENT2 (of the unpublished co-immunoprecipitations) (UniProt Q14542).
T2 sequence: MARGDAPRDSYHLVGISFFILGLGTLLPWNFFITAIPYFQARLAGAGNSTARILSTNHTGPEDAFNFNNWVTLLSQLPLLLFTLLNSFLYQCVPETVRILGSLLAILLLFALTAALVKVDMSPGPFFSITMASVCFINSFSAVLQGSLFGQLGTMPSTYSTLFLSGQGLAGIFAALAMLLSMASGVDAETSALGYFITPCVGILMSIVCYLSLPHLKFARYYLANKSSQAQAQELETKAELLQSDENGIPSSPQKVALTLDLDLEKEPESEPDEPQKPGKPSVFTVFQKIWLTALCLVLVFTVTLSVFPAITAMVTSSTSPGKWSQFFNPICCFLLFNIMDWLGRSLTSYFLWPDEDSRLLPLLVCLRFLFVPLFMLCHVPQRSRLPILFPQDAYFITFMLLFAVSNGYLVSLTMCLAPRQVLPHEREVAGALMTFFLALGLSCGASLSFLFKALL
The test is described as above.

Test [3] deals with T3, wild type human equilibrative nucleoside transporter 1 (hENT1), as HA-hENT1 and as 3xFLAG-hENT1 (human) (UniProt Q99808).
T3 sequence (chain, N-linked glycan at N48): T1 sequence
The experiment in a line: co-IP; HEK293 co-transfected with HA-ENT1 and a 3xFLAG construct; NP-40 lysate on anti-HA beads, about 18 h at 4°C, washed three times with TTBS; eluate immunoblotted with anti-FLAG; lysate loaded: wt 100 μg, N48Q 1000 μg, hLa 600 μg. On the technique in general: Immunoblotting shows a protein as a band on a membrane.

B1: ENT2 (of the unpublished co-immunoprecipitations) (protein, UniProt Q14542 1-456)
chain: T2 sequence
Take B1: the binding result in test [1] and in test [2] was “binds” throughout.

B2: wild type human equilibrative nucleoside transporter 1 (hENT1), as HA-hENT1 and as 3xFLAG-hENT1 (protein, UniProt Q99808-1 1-456)
chain: T1 sequence
modifications: N-linked glycan at N48
On to B2, for which the binding entry in test [3] is “binds”.

B3: N48Q-3xFLAG-hENT1 (N-glycosylation mutant of human ENT1) (protein, UniProt Q99808-1 1-456)
chain: T1 sequence with N48Q
As to B3, the binding result in test [3] is reported as “no binding (tested: 1000 μg lysate loaded to column)”.

B4: ENT1 (of the unpublished co-immunoprecipitations) (protein, UniProt Q99808 1-456)
chain: T1 sequence
With B4, the binding entry in test [1] and in test [2] was “binds” throughout.
